The other results are listed elsewhere or left out.
B1: chr6:149811313:149811414:+|3pUTR|ENSG00000120265|msi1|total|mutant (ssRNA)
RNA: GGGAGUUCUACAGUCCGACGAUCUGUUUCUAAUUUGCUGCUGAUAAUGUAUAUGAACUUAACAUGCUGUGUAAGCUGUGUCCCCGUUCUUGAACAGUUUAUGCAGUGCUGCUUUGCCAAAUAAAGUUAAAAGUAAAAGAGGCACAACAGAGGAUUGAGCAUCA
B2: chr12:52170242:52170446:-|3pUTR|ENSG00000167767|msi1|total|mutant (ssRNA)
RNA: GGGAGUUCUACAGUCCGACGAUCUGGCCCUCCCCUCCUUGGCAUUCAUGGGGGAGCCCAGGAACCCCCCACACCUAUGGGGUCCGAGCUCCUCCUUUCUUCUCACUCCUUCCCCUUCCUCCCUCCAUGCCCACUCCCCCUGCCCAACAGAGGAUUGAGCAUCA
B3: ENSG00000075240:stop:overlap|stop_codon|ENSG00000075240|stop_codon|NA|stop_codon (ssRNA)
RNA: GGGAGUUCUACAGUCCGACGAUCAGACCAUUCUCAGCCAGUACAUCAAGAUCACCUCAGCGGCAGCGUCUGGCGGGGACAGCUAGUAUUGACUUGCCCAGGACGUUGCUGGAAUUUUCUUUUUCUUUUUCUUUUUCUUUUUUUCAACAGAGGAUUGAGCAUCA
B4: chr19:10683396:10683509:+|CDS|ENSG00000129351|unk|total|mutant (ssRNA)
RNA: GGGAGUUCUACAGUCCGACGAUCGUUCCAAGGUGCUGGUUCCAACAAAAAGGUGGCGAAGGCCUACGCUGCUCUUGCUGCCCCCGAAAAGCUUUUCCCUGACACCCCUCUCGCCCUUGAUGCCAACAAAAAGAAGAGAGCCCCCAACAGAGGAUUGAGCAUCA
B5: chr1:227780961:227781062:+|3pUTR|ENSG00000143740|unk|FALSE|unique (ssRNA)
RNA: GGGAGUUCUACAGUCCGACGAUCCCUGGAAGAGGCCGCCCUCGUCUUGUCUCGGCUCCCUUUCAUGGACAGACUGGCCUUCUUAGCUGUACUAUAAAUUUGUGAGUGAAGUUAGAGCCCAGCUCACUUAGCCAGCUCACUUUGCAACAGAGGAUUGAGCAUCA
B6: chr7:6023389:6023508:+|CDS|ENSG00000106305|unk|FALSE|unique (ssRNA)
RNA: GGGAGUUCUACAGUCCGACGAUCGUUCUCUCUGUUUGGCCAGAAGCAUAAUGCUGUCAACGCAACCCUUAUAGAUAGCUGGGUAGAUAUUGCGAUUUUUCAGUUAAAAGAGGGAAGCAGUAAAGAAAAAGCCGCUGUUUUCCGCAACAGAGGAUUGAGCAUCA
B7: ENSG00000107863:be:win_1251|CDS|ENSG00000107863|bound_else_gene|NA|bound_elsewhere_windowed (ssRNA)
RNA: GGGAGUUCUACAGUCCGACGAUCAGCAUCUCAAAGCACGACAGAUUAUAACCAGGUCGUCCCCAACCGCACUACUUUGCAGGGACGACGUCGAAGCACCUCUCAUGAUCGAGUGCCCCAGUCUGUCCAGAUACGGCAACGCAGCAACAGAGGAUUGAGCAUCA
B8: chr12:105021166:105021267:-|3pUTR|ENSG00000136010|unk|total|mutant (ssRNA)
RNA: GGGAGUUCUACAGUCCGACGAUCAGUCAGACAGUGUCACUUCACUCGUCUGUUUAAAACCUUUCAAUGGCCCCCAUUUCACGCCGACCAAAGUCCAACGUAUUUACCUGGCCUACUGAUCUUGCUCCCCGCUACCUCUGACCUCAACAGAGGAUUGAGCAUCA
B9: chr3:48658964:48659065:-|CDS|ENSG00000008300|msi1|total|mutant (ssRNA)
RNA: GGGAGUUCUACAGUCCGACGAUCCGAUGUCUCCGACCACCUCUUCUACUCCUUUGAGCGUGGCAAUGAGCUGCAGCUGCUGGCCGUCAACCAGACCAGUGGGGAGCUGCGACUCAGCCGAAAGCCCGACAAUAACCGCCCACUCAACAGAGGAUUGAGCAUCA
B10: ENSG00000070961:be:win_3601|CDS_3pUTR|ENSG00000070961|bound_else_gene|NA|bound_elsewhere_windowed (ssRNA)
RNA: GGGAGUUCUACAGUCCGACGAUCAACAAGUCUGCUACCUCUUCAUCCCCAGGAAGCCCACUACAUAGUUUGGAAACAUCACUCUGAUUGUAAGCUGAAUGUUAACACACUAGCUGCAUUGUAAAGAAACAAAUUGAAACUGGGCAACAGAGGAUUGAGCAUCA
B11: ENSG00000198589:be:win_1051|CDS|ENSG00000198589|bound_else_gene|NA|bound_elsewhere_windowed (ssRNA)
RNA: GGGAGUUCUACAGUCCGACGAUCGCAGAUGCUAAUAGAGUAUUCUGUGGUCAGAUGACUGCAGUUUACCUUUUCAGUGAAGCUCUAAAUGCAGCUCAGAUAUUUGCUAUUUAUCAGUUGGGCCUGGGAUACAAGGGUACAUUUCAACAGAGGAUUGAGCAUCA
B12: chr5:154898482:154898583:-|CDS|ENSG00000082516|unk|FALSE|unique (ssRNA)
RNA: GGGAGUUCUACAGUCCGACGAUCUUUGGCCAAAAAGGGGGAUGCGGCAUCACUUAGAACGGCUGCAGAGUUGGCUGCCAUCGUAGGAGAGGAUGAGUUGUCUGCUUCCCUGGCUCUCAGAUGUGCCCAAGAGCUGCUUCUGGCCAACAGAGGAUUGAGCAUCA
B13: chr16:89696356:89697333:-|three_prime_utr|ENSG00000158792|control|control|control (ssRNA)
RNA: GGGAGUUCUACAGUCCGACGAUCAGGAGCCUUUCCACAUUUCCCCACCCUCGGAACCCAGACGCAUGCCCACAUGUGCUGGGUAGAGGGGUCCAGCCUGUUCCAGCCAGUGCCUGAACCUGUCCCUGAGAAGGACCCUGUGCCCAACAGAGGAUUGAGCAUCA
B14: chr12:120444061:120444162:-|3pUTR|ENSG00000170855|unk|total|mutant (ssRNA)
RNA: GGGAGUUCUACAGUCCGACGAUCAAUUGUCAACCUGCAUAUCCUAAAAAUGUCAAAAUGCUGCAUCUGGUUAAAUGUCGGGGCCGGGGGGAAGCUGAAGGUGCUCGCUUCAUUUGCCUUGUUUACUCAUCCUGCCCUGUAAUGCAACAGAGGAUUGAGCAUCA

target: T1, UNK ZnF1-6 (called full-length) (human, UniProt Q9C0B0 30-357); assay: nsRBNS (natural sequence RNA bind-n-seq); RBNS binding buffer (assumed for nsRBNS): 25 mM Tris pH 7.5, 150 mM KCl, 3 mM MgCl2, 0.01% Triton X-100, 500 ug/ml BSA, 20 U/ml SUPERase-In, 4 C; UNK is unkempt and MSI1 is Musashi-1; names of the RNAs are library labels; protein concentration not given here; high values mean tight binding
T1 sequence: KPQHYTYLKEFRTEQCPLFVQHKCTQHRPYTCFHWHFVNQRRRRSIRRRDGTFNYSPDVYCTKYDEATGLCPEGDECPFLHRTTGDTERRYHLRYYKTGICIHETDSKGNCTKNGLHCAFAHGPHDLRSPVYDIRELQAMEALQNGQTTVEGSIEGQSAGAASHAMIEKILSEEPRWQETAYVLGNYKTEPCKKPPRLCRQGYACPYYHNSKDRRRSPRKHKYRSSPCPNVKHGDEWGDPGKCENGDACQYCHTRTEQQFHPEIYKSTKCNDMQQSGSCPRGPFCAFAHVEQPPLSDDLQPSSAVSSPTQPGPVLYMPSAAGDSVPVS

Binder	binding signal
B1	0.401 enrichment R
B2	0.863 enrichment R
B3	1.62 enrichment R
B4	1.07 enrichment R
B5	1 enrichment R
B6	0.766 enrichment R
B7	0.494 enrichment R
B8	0.614 enrichment R
B9	0.549 enrichment R
B10	0.455 enrichment R
B11	0.422 enrichment R
B12	0.93 enrichment R
B13	0.683 enrichment R
B14	0.648 enrichment R

From paper PMC12136788
